Laboratory results from PubChem BioAssay AID720709 (National Center for Advancing Translational Sciences (NCATS), 2013).
Screen size: about 360,000 compounds; about 520 (0.14%) were called active. Inconclusive means that the source gave no clear call. Such entries were picked first, then a sample of the others. Calls come from the whole dose curve; as a rule, active = well fitted inhibition curve with a large enough effect; inconclusive = small, poorly fitted or top-dose-only effect; inactive = no such curve, though single readings can be large or run the other way. Potencies of inconclusive entries are left out as doubtful fits.

What follows are compounds tested against Rap guanine nucleotide exchange factor 3 (Homo sapiens) (UniProt O95398) (assay: qHTS for Antagonist of cAMP-regulated guanine nucleotide exchange factor 3 (EPAC1): primary screen). Settings: EPAC1 GEF assay, Rap1b-BODIPY-GDP exchange fluorescence; series mostly up to 115 µM.
Note: nearly all actives have a fitted effect of over 50% in size.
Potency is the fitted concentration of half-maximal effect; tags give direction and shape of the fitted curve.

UniProt O95398, sequence (O95398 whole entry, looked up): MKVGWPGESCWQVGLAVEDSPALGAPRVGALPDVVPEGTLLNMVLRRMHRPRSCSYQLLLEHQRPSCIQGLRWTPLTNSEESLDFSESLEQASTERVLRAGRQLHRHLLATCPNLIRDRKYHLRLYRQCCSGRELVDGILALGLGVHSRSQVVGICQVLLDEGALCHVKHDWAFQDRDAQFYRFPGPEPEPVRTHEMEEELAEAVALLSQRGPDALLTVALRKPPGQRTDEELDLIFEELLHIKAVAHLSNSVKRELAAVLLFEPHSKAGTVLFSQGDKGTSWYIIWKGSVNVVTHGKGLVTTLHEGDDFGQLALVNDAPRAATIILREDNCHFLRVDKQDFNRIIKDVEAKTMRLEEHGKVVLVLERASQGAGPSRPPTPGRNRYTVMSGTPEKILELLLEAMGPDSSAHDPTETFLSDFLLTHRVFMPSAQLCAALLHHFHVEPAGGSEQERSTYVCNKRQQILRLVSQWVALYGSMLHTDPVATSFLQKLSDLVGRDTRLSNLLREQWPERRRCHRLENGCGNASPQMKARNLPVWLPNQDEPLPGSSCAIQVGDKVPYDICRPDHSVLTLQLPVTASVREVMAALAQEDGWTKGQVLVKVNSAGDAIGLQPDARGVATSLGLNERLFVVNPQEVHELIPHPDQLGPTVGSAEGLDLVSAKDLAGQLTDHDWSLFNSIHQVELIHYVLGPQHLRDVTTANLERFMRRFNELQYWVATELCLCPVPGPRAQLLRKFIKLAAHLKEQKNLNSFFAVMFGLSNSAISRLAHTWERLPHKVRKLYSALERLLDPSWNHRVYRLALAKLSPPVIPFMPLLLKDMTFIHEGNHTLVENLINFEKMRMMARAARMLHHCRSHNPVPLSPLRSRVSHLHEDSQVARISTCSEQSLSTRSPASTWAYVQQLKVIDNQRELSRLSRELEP

Question: Cn1cccc1C(=O)NC(=O)COC(=O)c1cc(S(=O)(=O)N2CCCCC2)ccc1Cl was tested. Which Potency did it give?
Answer: inconclusive [inhibitor, single point]

Question: With COc1ccc(C(=O)Nc2cccc(C)n2)cc1S(=O)(=O)N1CCCc2ccccc21 as the compound, how does the Potency read?
Answer: inconclusive [inhibitor, single point]

Question: For Nc1c(C(=O)NC2CC2)sc2nc3c(c(-c4ccco4)c12)CC/C3=C/c1ccco1, which Potency is on record?
Answer: inconclusive [inhibitor, full curve]

Question: For O=C1C=C(N(CCO)Cc2ccccc2)c2ccccc2C1=O, which Potency is on record?
Answer: active: 44.7 µM

Question: With CCOC(=O)c1c(NC(=O)/C=C/C(=O)O)sc(C)c1-c1ccc(F)cc1 as the compound, how does the Potency read?
Answer: inconclusive [inhibitor, partial curve]

Question: With CC1CCCN(C(=O)c2ccc3c(c2)C(=O)N(CCC2=CCCCC2)C3=O)C1 (centres undefined) as the compound, how does the Potency read?
Answer: inconclusive [inhibitor, single point]

Question: O=C(CN1CCCc2ccccc21)NC(=O)NCc1ccccc1 was tested. Which Potency did it give?
Answer: inactive

Question: Which Potency does the source give for COc1cccc(-c2noc(C3CCCN(C(=O)CC(C)(C)C)C3)n2)c1 (centres undefined) here?
Answer: inactive

Question: COc1ccc(-n2c(SCC(=O)Nc3ccccc3OC)nc(O)c(Cc3ccccc3)c2=O)cc1 was tested. Which Potency did it give?
Answer: inconclusive [inhibitor, single point]

Question: Cc1ccccc1C(=O)N/N=C/c1ccc([N+](=O)[O-])s1 was tested. Which Potency did it give?
Answer: inactive

Question: With Cc1ccc(C(=O)CCC(=O)OCC(=O)N2CCN(S(=O)(=O)c3ccc(C)cc3C)CC2)cc1 as the compound, how does the Potency read?
Answer: inconclusive [inhibitor, partial curve]

Question: Which Potency does the source give for CCOc1ccc(N=C2NC(=O)/C(=C/C(=O)OC)S2)cc1 here?
Answer: inconclusive [inhibitor, partial curve]

Question: With C=CCn1c(SCC(=O)NC(N)=O)nnc1-c1cc2c(s1)CCC(CC)C2 (centres undefined) as the compound, how does the Potency read?
Answer: inconclusive [inhibitor, single point]

Question: For CC1(N2CCOCC2)CC2(O)C(=[N+]1[O-])CCc1c2no[n+]1[O-] (centres undefined), which Potency is on record?
Answer: inconclusive [inhibitor, partial curve]

Question: With O=C(COC(=O)c1ccc(NS(=O)(=O)c2cccs2)cc1)NCc1ccco1 as the compound, how does the Potency read?
Answer: inactive

Question: With Cc1nnc(-c2ccco2)c2cn(-c3cccc(Br)c3)nc12 as the compound, how does the Potency read?
Answer: inconclusive [inhibitor, partial curve]

Question: With O=C(Nc1ccc2nc3n(c(=O)c2c1)CCCC3)c1ccccc1F as the compound, how does the Potency read?
Answer: inactive

Question: How did the Potency turn out when CCn1c(SCC(=O)N2CCC(C)CC2)nc2c(c1=O)SCC2 was run?
Answer: inactive

Question: Cc1c(OC(C)C(=O)NCc2ccccn2)ccc2c3c(c(=O)oc12)CCCC3 (centres undefined) was tested. Which Potency did it give?
Answer: inconclusive [inhibitor, partial curve]

Question: How did the Potency turn out when COc1ccccc1NC(=O)N1c2ccc(F)cc2CCC1C (centres undefined) was run?
Answer: inconclusive [inhibitor, single point]

Question: Oc1c(C2=NCCNC(C(F)(F)F)=C2)ccc2ccccc12 was tested. Which Potency did it give?
Answer: inconclusive [inhibitor, partial curve]

Question: Which Potency does the source give for Cc1ccc(OC(C)C(=O)N2CCN(c3ccccn3)CC2)cc1 (centres undefined) here?
Answer: inconclusive [inhibitor, full curve, poor fit]

Question: COC(=O)c1ccc(CSc2nc3scc(-c4cccs4)c3c(=O)[nH]2)o1 was tested. Which Potency did it give?
Answer: inconclusive [inhibitor, single point]

Question: For O=C1NC(=S)S/C1=C\c1cc(Cl)cc(Cl)c1O, which Potency is on record?
Answer: active: 39.8 µM

Question: For C=CCOc1ccc(/C=C/C(=O)OCC(=O)N2CCN(C(C)=O)CC2)cc1, which Potency is on record?
Answer: inconclusive [inhibitor, full curve, poor fit]

Question: For Cc1ccc(S(=O)(=O)NN2C(=O)/C(=C/c3ccccn3)SC2=S)cc1, which Potency is on record?
Answer: inactive

Question: For COc1cccc(-c2csc(NNC(=O)c3cccs3)n2)c1, which Potency is on record?
Answer: inactive

Question: How did the Potency turn out when O=C(Nc1cccnc1)c1cc(S(=O)(=O)N2CCCCC2)c(Cl)cc1Cl was run?
Answer: inconclusive [inhibitor, full curve, poor fit]

Question: CCc1nc(-c2ccccc2)c2ccccn12 was tested. Which Potency did it give?
Answer: inactive

Question: CC(C)(C)C1CCC(=O)N(CCSc2ccccc2)CC1 (centres undefined) was tested. Which Potency did it give?
Answer: inconclusive [inhibitor, single point]

Question: With O=C1CCC(=O)N1c1cccc(-c2nc3ccccc3o2)c1 as the compound, how does the Potency read?
Answer: inconclusive [inhibitor, full curve, poor fit]

Question: How did the Potency turn out when COc1c(C)cc(C(O)c2ncc(-c3ccc(C(F)(F)F)cc3)[nH]2)cc1C (centres undefined) was run?
Answer: inconclusive [inhibitor, partial curve]

Question: For COc1ccc2nc(/N=C/c3cccc(OC)c3O)sc2c1, which Potency is on record?
Answer: inconclusive [inhibitor, single point]

Question: With Cc1c(OCC(=O)Nc2cccnc2)ccc2c3c(c(=O)oc12)CCC3 as the compound, how does the Potency read?
Answer: inactive

Question: With Cc1cc2cc(CN(Cc3cccs3)C(=S)NCc3ccco3)c(=O)[nH]c2cc1C as the compound, how does the Potency read?
Answer: inconclusive [inhibitor, full curve, poor fit]

Question: With O=C(C=C=Nc1ccccc1)C(=O)N=C=Cc1ccccc1 as the compound, how does the Potency read?
Answer: inconclusive [inhibitor, single point]

Question: With Cc1ccc2c(c1)c1c3n2CCN(C(=O)C2CC2)C3CCC1 (centres undefined) as the compound, how does the Potency read?
Answer: inactive

Question: CC(C)OC(=O)c1ccc(NC(=O)c2ccccc2)cc1 was tested. Which Potency did it give?
Answer: inactive

Question: How did the Potency turn out when C=CCn1c(C)cc(C(=O)Cn2ncc(Cl)c(Cl)c2=O)c1C was run?
Answer: inconclusive [inhibitor, partial curve]

Question: With CN(C)S(=O)(=O)c1ccc(N2CCCC2)c(C(=O)Nc2nc3c(ccc4ccccc43)s2)c1 as the compound, how does the Potency read?
Answer: inconclusive [inhibitor, partial curve]

Question: With O=C(NCC1CCCO1)c1cc(Br)c(Br)s1 (centres undefined) as the compound, how does the Potency read?
Answer: inconclusive [inhibitor, partial curve]

Question: With O=Cc1c[nH]c2ccc(C(=O)c3ccccc3)cc12 as the compound, how does the Potency read?
Answer: inconclusive [inhibitor, partial curve]

Question: COc1ccc(N2CCN(C(=O)c3ccccc3Br)CC2)c([N+](=O)[O-])c1 was tested. Which Potency did it give?
Answer: inconclusive [inhibitor, partial curve]

Question: How did the Potency turn out when Cc1cc(Nc2cccc(C)c2C)n2nc(C)nc2n1 was run?
Answer: inconclusive [inhibitor, single point]
